Measurements as given in PubChem BioAssay (NCATS).
This list was built around the results that the source calls inconclusive (neither active nor inactive); the mix of calls is not that of the screen. Where the call is inconclusive, the potency comes from a doubtful curve fit. Calls of active or inactive are those of the source. The call rests on the fitted dose curve; in most records, active means well fitted cell-killing curve with a large enough effect; inconclusive means small, poorly fitted or top-dose-only effect, or effect the other way; inactive means no such curve, though single readings can be large or run the other way.

test: Viability qHTS for spleen associated tyrosine kinase inhibitor (SYKi) naive MV4-11 cells (AID 1963823); settings: MV4-11 AML viability, CellTiter-Glo luminescence, 72 h; viability (% of control): at 45 µM (top of the series); further: nearly all actives have a fitted effect of over 40% in size
Summary of the method: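 Luminescence from CellTiter-Glo, developed 10 min at room temperature, gave viability of MV4-11 cells never exposed to SYK inhibitor. Cells (500/well) had been incubated with compounds for 72 hr under standard culture conditions.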
Potency means the concentration at half of the fitted maximal effect; tags describe the fitted curve by direction and shape.

**Q.** With CCCCN=C(N)NC(=N)N as the molecule, how does the “viability (% of control)” value read?
**A.** Its value is inactive: 63.7%.

**Q.** Which “viability (% of control)” value does the source give for CCCCS(=O)(=O)NC(Cc1ccc(OCCCCC2CCNCC2)cc1)C(=O)O (stereo not drawn) here?
**A.** Its value is inactive: 81%.

**Q.** With COc1cc2c(cc1OC)CN(C(=O)[C@H](C)N[C@@H](CCc1ccccc1)C(=O)O)[C@H](C(=O)O)C2 as the molecule, how does the Potency read?
**A.** The Potency was inconclusive: 0.422 µM [rising, full curve, poor fit].

**Q.** With CC12CCC3c4ccc(O)cc4CCC3C1CC(OC1OC(C(=O)O)C(O)C(O)C1O)C2O (stereo not drawn) as the molecule, how does the “viability (% of control)” value read?
**A.** Its value is inactive: 85.8%.

**Q.** With COc1ccc(C(=O)n2c(C)c(Cc3cccc(O[C@@H](C)C(=O)O)c3)c3cc(OC(F)(F)F)ccc32)cc1 as the molecule, how does the Potency read?
**A.** The Potency was inconclusive: 29.1 µM [cytotoxic, single point].

**Q.** For CC1CC(O)/C=C/C(O)/C=C\C(=O)O1 (stereo not drawn), which Potency is on record?
**A.** Its Potency is inconclusive: 5.3 µM [cytotoxic, partial curve, poor fit].

**Q.** Which “viability (% of control)” value does the source give for CC#CCn1c(N2CCCC(N)C2)nc2c1c(=O)n(Cc1nc(C)c3ccccc3n1)c(=O)n2C (stereo not drawn) here?
**A.** The value was inactive: 73.3%.

**Q.** Which Potency does the source give for Cn1cc(-c2ccc3ncc(Cc4ccc5ncccc5c4)n3n2)cn1 here?
**A.** The Potency was inconclusive: 16.4 µM [cytotoxic, partial curve].

**Q.** Which Potency does the source give for O=C(/C=C/N1C[C@H]2C[C@@H]1CN2c1ccccn1)c1ccccc1O here?
**A.** Its Potency is inconclusive: 0.0012 µM [rising, full curve].

**Q.** Which Potency does the source give for O=C(/C=C/c1ccc(O)cc1)OC[C@H]1O[C@@H](OC(=O)/C=C/c2ccccc2)[C@H](O)[C@@H](O)[C@@H]1O here?
**A.** Its Potency is inconclusive: 0.796 µM [rising, partial curve, poor fit].

**Q.** Which Potency does the source give for Nc1nc2c(ncn2CCC(CO)CO)c(=O)[nH]1 here?
**A.** The Potency was “inactive”.

**Q.** With C=C(C)C1CCC2(C(=O)O)CCC3(C)C(CCC4C5(C)C(C=O)C(O)C(C)(C)C5CCC43C)C12 (stereo not drawn) as the molecule, how does the Potency read?
**A.** Its Potency is inconclusive: 10 µM [cytotoxic, single point].

**Q.** Which “viability (% of control)” value does the source give for C[N+](C)(C)CCOC(=O)CCC(=O)OCC[N+](C)(C)C here?
**A.** Its value is inactive: 106%.

**Q.** For COc1c2c(c(CO)c3c1C(=O)OC3)OC1(C)CCC3(O)C(C)(C)OC(=O)CCC3(C)C1C2 (stereo not drawn), which Potency is on record?
**A.** Its Potency is inconclusive: 1.59 µM [cytotoxic, partial curve, poor fit].

**Q.** For CCN1CCN(Cc2ccc(NC(=O)c3ccc(C)c(Oc4ccnc5[nH]ccc45)c3)cc2C(F)(F)F)CC1, which Potency is on record?
**A.** Its Potency is active: 0.0255 µM.

**Q.** Which Potency does the source give for Cc1cc(O)cc(C)c1Cl here?
**A.** Its Potency is inconclusive: 0.841 µM [rising, partial curve, poor fit].

**Q.** With O=C(/C=C/c1ccc(O)c(O)c1)O[C@@H]1[C@@H](O)[C@H](OC2CCCCC2O)O[C@H](CO)[C@H]1O (stereo partly drawn) as the molecule, how does the “viability (% of control)” value read?
**A.** The value was inactive: 86.9% [at 17.3 µM].

**Q.** Which Potency does the source give for CC1(c2nc3c(C(N)=O)cccc3[nH]2)CCCN1 (stereo not drawn) here?
**A.** The Potency was inconclusive: 14.6 µM [cytotoxic, partial curve, poor fit].

**Q.** Which Potency does the source give for COC(=O)N1CCN(Cc2cccc(NC(=O)Nc3ccc(C)nc3)c2F)CC1 here?
**A.** The Potency was inconclusive: 18.4 µM [cytotoxic, partial curve].

**Q.** For NC(=Nc1ccc(CCNCc2cccc(Cl)c2)cc1)c1cccs1, which Potency is on record?
**A.** Its Potency is inconclusive: 14.6 µM [cytotoxic, partial curve, poor fit].

**Q.** For COc1ccccc1-n1c(SCC(=O)Nc2nc3ccc(C)cc3s2)nc2c(c1=O)SCC2, which “viability (% of control)” value is on record?
**A.** Its value is inactive: 67.3% [at 17.3 µM].

**Q.** Which Potency does the source give for COc1cccc(CNC(=O)Nc2nc(-c3ccncc3)cs2)c1 here?
**A.** Its Potency is inconclusive: 8.2 µM [cytotoxic, partial curve].

**Q.** For Cn1c2ccc(F)cc2c2c(C(=O)N3CCCC3)cn(-c3ccccc3)c(=O)c21, which Potency is on record?
**A.** Its Potency is inconclusive: 20.6 µM [cytotoxic, single point].

**Q.** With O=c1[nH]c2ccc(C#CCN3CCC(Cc4ccccc4)CC3)cc2[nH]1 as the molecule, how does the Potency read?
**A.** The Potency was inconclusive: 0.326 µM [cytotoxic, full curve].

**Q.** With CCc1cccc(CC)c1NC(=O)c1nn(C)c2c1CCc1cnc(Nc3ccc(C(=O)NC4CCN(C)CC4)cc3OC(F)(F)F)nc1-2 as the molecule, how does the Potency read?
**A.** The Potency was inconclusive: 1.12 µM [cytotoxic, full curve].

**Q.** For COc1cc([C@H]2c3cc(O)c(OC)cc3C[C@@H](CO[C@@H]3O[C@H](CO)[C@@H](O)[C@H](O)[C@H]3O)[C@@H]2CO)ccc1O, which “viability (% of control)” value is on record?
**A.** Its value is inactive: 76.8% [at 17.3 µM].

**Q.** With CC1(C)CC[C@]2(C(=O)O)CC[C@]3(C)C(=CCC4[C@@]5(C)C[C@@H](O)[C@H](O)[C@](C)(CO)C5CC[C@]43C)[C@@H]2[C@@H]1O (stereo partly drawn) as the molecule, how does the Potency read?
**A.** Its Potency is inconclusive: 0.1 µM [cytotoxic, full curve, poor fit].

**Q.** For CN1CCCN=C1COC(=O)C(O)(c1ccccc1)C1CCCCC1 (stereo not drawn), which Potency is on record?
**A.** The Potency was inconclusive: 4.22 µM [cytotoxic, partial curve, poor fit].
